PMC10668032
Some of the results follow. At the low end of the ranking the order means little.

Target: SIX1 homeodomain (reference allele) (UniProt Q15475)
Experiment: universal protein binding microarray
Settings: Universal all-10-mer PBM (8x60K, AMADID 030236), 300 nM GST-tagged protein, Alexa Fluor 488 anti-GST; buffer, salt, pH and temperature not stated; high values mean tight binding; most listed sequences are background and not binding sites; double strand, one strand shown

Sequence | binding signal [E-score]
TGGACAAA | -0.147
GCGAACAA | -0.0258
AACAGCGT | -0.125
CACGCACG | -0.0944
CGGTGAAC | 0.0225
GGGTGTCA | 0.47
CTGTCCAA | -0.112
AGAGAGGC | -0.111
ATCACACG | 0.256
TATCGTAA | 0.296
ACCTATAT | 0.195
CGGCACCA | -0.0307
AGCCGAGC | -0.178
TCATCAGA | -0.0287
ACGCTTAG | -0.101
AGCGGCTA | -0.0681
ATCCCAGA | 0.227
CACGAGCG | -0.234
GACCCTGC | -0.042
GAAGAGAA | -0.0939
GCCTCGCC | -0.0248
ACGGAGAC | 0.127
CTTAATAA | -0.106
TAGTGGAA | -0.134
ACCTGAAA | -0.027

Sequence | binding signal [E-score]
AAAACCAT | 0.103
AGATCGTA | 0.237
CAGTATAG | 0.178
CACTCCCC | -0.0151
CTCAAGTA | 0.0414
CCGCGCGC | -0.155
ACTAAAGG | -0.134
ATCGGGGC | 0.198
AGTGAGGA | -0.0654
CTGGCCAC | -0.176
GTGTAGCA | -0.191
CGTCGGCC | -0.264
ACTCGATG | -0.0167
TATGCGGA | 0.284
TACTTGAA | 0.0425
AGGAACCT | -0.0327
AGGGCCAT | -0.142
ATTAATTG | 0.0139
ATAAGTAC | -0.0335
AATAAGGG | -0.104
AATCTGTG | 0.0621
AAAGTCTA | -0.196
GGACTGCA | -0.254
AGGAAAGG | -0.0806
ATATGTGC | 0.241

Sequence | binding signal [E-score]
ATCTCCGG | 0.229
CGTTGCGC | -0.246
AACGGACT | -0.33
GCGGACCC | -0.0794
CAGTATAA | 0.117
CACTGCCG | 0.0986
ATCCGGAT | 0.446
GTAGCGCA | -0.126
CGGAACGC | -0.0738
CAGCAGAA | -0.145
CAAGTGGA | 0.141
CAATTAAC | -0.119
GCATACTA | 0.22
CCCGCCGA | 0.0271
TAGTCGCA | -0.0507
CGGCCGAG | -0.112
CACACCTG | 0.0264
AGTATGCA | -0.0969
GTTCCAGA | 0.0177
ATTTAGTG | 0.143
CGATAGGC | 0.175
CCTGTGAG | -0.0112
CCACCACC | -0.0531
TATAACAA | 0.224
CGCCACCG | -0.0881

Sequence | binding signal [E-score]
CTCGAGGA | -0.0713
AGAACTGA | -0.0616
ATAAAGAT | 0.0956
AATTGAGG | -0.152
ACAATCTA | 0.02
ACAGAGGC | -0.16
TAACAATA | 0.0577
CGTCGTAA | -0.166
AGGTCGCG | -0.17
AAATCAGC | -0.224
ACCCAAGG | 0.0737
CGAAGCCA | -0.164
ATTACCTC | -0.147
CAGATGCC | -0.0756
AAGAGCGG | -0.0725
GCAGCCGC | -0.0696
ACGAACGA | -0.117
GCGAACGC | 0.024
CAAAGGTC | -0.223
AACCATTA | -0.106
ACCCAATC | 0.081
GCCATTAC | -0.149
CCACACGC | 0.141
AAAGCAGT | -0.017
ACCTTATA | 0.17

Sequence | binding signal [E-score]
CCTTTTGA | -0.0432
CGAATACA | 0.151
TTACCAAA | -0.0282
CTTATGAC | -0.154
ACCTTGGC | -0.093
AAATTGAC | -0.0828
AAGTCCTG | -0.109
CAACCTGC | -0.215
CGTATGCA | 0.0166
CTCTCTAC | -0.0321
CTTCTTTA | -0.0212
GAAGGCTC | 0.00269
CTTGCATC | 0.0348
AGCAGCGA | -0.113
GGCAACTA | -0.3
GTGATTCA | -0.116
CGCGTGGA | -0.107
GGCGACCA | -0.152
AGATACAG | 0.246
ATGTTGTC | 0.0683
ACTGGCCA | -0.193
AATACGGG | 0.259
CTGTAACA | -0.202
GGGGCCAA | -0.184
ATAAGCGC | -0.0863

Sequence | binding signal [E-score]
CGCCGGCG | 0.145
ACAGACCC | -0.141
ATAAGAGG | 0.0089
AAATATCT | 0.157
ACCTCTAT | 0.0242
AGACCTAA | -0.198
CACGATGA | -0.0459
ATTGCATA | 0.111
ACCTTACC | -0.0774
CGGCACCG | 0.0338
ATCCATAG | 0.193
AAGCTGGG | 0.0352
GAGGAGTA | 0.0858
CTAACACC | 0.213
CACCTTCC | 0.115
AAGCTAAG | -0.24
ACCAAAAC | -0.0414
ACCCTACG | 0.0306
AATCGTAG | -0.0874
GGTGTGAA | 0.135
CAGCGCGA | 0.0341
CGAGGCAA | -0.19
GCTTCATA | -0.031
ACTTTTTA | -0.208
AGGTCTGC | -0.286

Sequence | binding signal [E-score]
CTGACCCA | -0.112
ATCTGAGG | 0.261
ATTCTTCC | -0.149
AGCCATAA | -0.1
AGCTCCCG | -0.103
CAAACATA | -0.0705
AGTCGTCG | -0.315
AAAATATT | 0.0756
GGACTAGA | -0.269
AATTGAAC | -0.201
CTAGACTC | -0.00854
CCATGACC | -0.158
CTTGAAAG | -0.0594
GCTTGATA | 0.351
AATAACGG | -0.133
TCTTATAA | -0.0653
CGTCTCCC | 0.136
AATGCGGT | -0.0549
ATACAATG | 0.248
CTTAGGTA | 0.0262
TCGTTTCA | 0.0294
CATGGTGC | -0.137
